Assay results from PubChem BioAssay AID504466 (National Center for Advancing Translational Sciences (NCATS), 2011).
Screen size: about 330,000 compounds; about 4,200 (1.3%) were called active. This list was built around the results that the source calls inconclusive (neither active nor inactive); the mix of calls is not that of the screen. Calls follow the shape of the dose curve; as a rule, active = well fitted activation curve with a large enough effect; inconclusive = small, poorly fitted or top-dose-only effect; inactive = no such curve, though single readings can be large or run the other way. A potency beside an inconclusive call is a rough fit, not a confirmed value.

assay: qHTS screen for small molecules that induce genotoxicity in human embryonic kidney (HEK293T) cells expressing luciferase-tagged ELG1; conditions: HEK293T ELG1-luciferase reporter, luminescence, 16 h; series mostly up to 46 µM; activity change, positive = activation: at the top concentration; also: nearly all actives have a fitted effect of over 60% in size; as to activity change, positive = activation: % of control where 0% means no effect
Method in brief: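 Quantitative HTS format in 1536-well plates. HEK293T ELG1-luciferase reporter cells receive test compound and are incubated 16 hr at 37 °C, 5% CO2; ONE-Glo added, 30 min room temperature, then luminescence read.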
Potency is read from the fitted curve at half-maximal effect; tags tell the direction and shape of the fitted curve.

Which Potency does the source give for `Cc1cc2nc(-c3ccc(=O)[nH]c3)n(Cc3ccccc3)c2cc1C` here?
Its Potency is inconclusive: 20.6 µM [activator, single point].

For `CN(C)S(=O)(=O)c1ccc(C(=O)NCCOc2ccccc2)cc1`, which Potency is on record?
Its Potency is inconclusive: 14.6 µM [activator, partial curve, poor fit].

With `CCCOc1ccc(C(=O)CCC(=O)OCC(=O)N2CC(=O)Nc3ccccc32)cc1` as the compound, how does the “activity change, positive = activation” value read?
The value was inactive: -0.551%.

For `CCN(CC(=O)Nc1ccccc1C(F)(F)F)C(=O)c1oc2ccc(OC)cc2c1C`, which Potency is on record?
The Potency was inconclusive: 18.3 µM [activator, single point].

For `NC(=O)c1nsc(C(=O)N(c2cccc(F)c2)C(C(=O)NC2CCCC2)c2ccc(O)cc2)c1N` (stereo not given), which “activity change, positive = activation” value is on record?
Its value is inactive: -7.78%.

With `O=C(Nc1nc2ccccc2[nH]1)c1ccccc1O` as the compound, how does the Potency read?
The Potency was inconclusive: 2.91 µM [activator, full curve].

For `CCN=c1scc(-c2ccco2)n1/N=C/c1ccc(O)cc1`, which Potency is on record?
Its Potency is active: 11.6 µM.

For `CCOC(=O)c1cnc2ccc(OCC)cc2c1NCc1ccccc1`, which “activity change, positive = activation” value is on record?
The value was inactive: -1.99%.

With `CN(Cc1c(F)cccc1Cl)C(=O)CNC(=O)c1cccs1` as the compound, how does the Potency read?
The Potency was inconclusive: 20.6 µM [activator, partial curve, poor fit].

Which Potency does the source give for `CCOc1cccc(C(=O)Nc2ccc3c(c2)OCCO3)c1` here?
The Potency was active: 2.31 µM.

For `CC(C)c1ccc2oc(-c3cc(N)ccc3O)nc2c1`, which Potency is on record?
The Potency was inconclusive: 2.59 µM [activator, partial curve].

For `Cc1ccc2nc(-c3ccccn3)c(Nc3ccccc3C)n2c1`, which Potency is on record?
Its Potency is inconclusive: 20.6 µM [activator, partial curve].

Which Potency does the source give for `CC1CCCN(C(=O)CNC(=O)c2sc3ccccc3c2Cl)C1` (stereo not given) here?
The Potency was inconclusive: 16.4 µM [activator, partial curve, poor fit].

Which Potency does the source give for `COc1ccc(C2=NN(C(C)=O)C(c3cccs3)C2)cc1OC` (stereo not given) here?
Its Potency is inconclusive: 16.4 µM [activator, partial curve, poor fit].

Which “activity change, positive = activation” value does the source give for `CCc1nc2sc3c(O)cc(=O)[nH]c3c2cc1C` here?
The value was inactive: -0.873%.

Which “activity change, positive = activation” value does the source give for `Cc1c(NC(=O)/C(C#N)=C/c2ccc(-c3cccc(Cl)c3)o2)c(=O)n(-c2ccccc2)n1C` here?
The value was inactive: -13.5%.

For `CC(C)(C)C1CCc2[nH]c3ccccc3c(=O)c2C1` (stereo not given), which Potency is on record?
Its Potency is inconclusive: 20.6 µM [activator, partial curve, poor fit].

With `COc1ccc(/C=C2\SC(=O)N(CCC(=O)NC3CCS(=O)(=O)C3)C2=O)cc1` (stereo not given) as the compound, how does the Potency read?
The Potency was inconclusive: 9.2 µM [activator, partial curve].

Which “activity change, positive = activation” value does the source give for `CC(=O)c1cccc(NC(=O)C2CCN(C(=O)c3cccs3)CC2)c1` here?
Its value is inactive: 3.27%.

Which Potency does the source give for `Cc1cc(C(=O)COC(=O)c2ccc[nH]c2=O)c(C)n1C` here?
Its Potency is inconclusive: 18.4 µM [activator, partial curve, poor fit].

Which Potency does the source give for `O=C(N/N=C/c1ccc(OC2CSC2)cc1)c1ccccc1` here?
The Potency was inconclusive: 4.61 µM [activator, partial curve].

For `CC(=O)NC(=S)Nc1ccc(-c2nc3ccc(C)cc3s2)cc1`, which Potency is on record?
The Potency was inconclusive: 5.17 µM [activator, partial curve].

For `COc1ccc(/C=C/C(=O)Nc2ccc3nc4n(c(=O)c3c2)CCCC4)cc1OC`, which “activity change, positive = activation” value is on record?
Its value is inactive: 3.77%.

Which Potency does the source give for `Clc1ccccc1Nc1nc2ccccc2o1` here?
Its Potency is inconclusive: 2.91 µM [activator, full curve].

For `COc1cc(C2Nc3ccc4ncccc4c3C3=C2C(=O)CCC3)cc(OC)c1O` (stereo not given), which Potency is on record?
Its Potency is inconclusive: 11.6 µM [activator, partial curve, poor fit].

Which Potency does the source give for `O=C(Nc1ccc2c(c1)OCO2)c1ccc(COc2ccc3c(c2)CCC3)o1` here?
Its Potency is inconclusive: 16.4 µM [activator, partial curve, poor fit].

For `COc1ccc(N=Nc2cc(C)ccc2O)cc1`, which Potency is on record?
The Potency was active: 3.66 µM.

For `O=C(N/N=C/c1ccco1)c1cc(-c2ccccc2)nc2ccccc12`, which “activity change, positive = activation” value is on record?
Its value is inactive: -4.33%.

With `CSc1ccccc1C(=O)Nc1ccc2c(c1)CCC2` as the compound, how does the Potency read?
Its Potency is inconclusive: 13 µM [activator, partial curve, poor fit].

With `CN1CCN(c2ccc(NC(=O)c3ccc(-c4ccccc4F)o3)cc2)CC1` as the compound, how does the Potency read?
Its Potency is inconclusive: 11.6 µM [activator, partial curve].

For `S=c1[nH]nc(-c2ccc3c(c2)OCO3)n1-c1ccccc1`, which “activity change, positive = activation” value is on record?
Its value is inactive: -1.25%.

With `O=C(Nc1ccc2c(c1)CCC2)Nc1ccccc1Cl` as the compound, how does the Potency read?
Its Potency is active: 2.31 µM.

With `Cn1c(=O)n(CCOc2ccccc2Cl)c2ccccc21` as the compound, how does the Potency read?
Its Potency is inconclusive: 11.6 µM [activator, partial curve].

Which Potency does the source give for `Clc1ccc(C2=Nn3c(nnc3-c3n[nH]c4c3CCC4)SC2)cc1Cl` here?
Its Potency is inconclusive: 16.4 µM [activator, partial curve, poor fit].

For `CC1=NN(C(N)=S)C(=O)C1N=Nc1ccc(F)cc1` (stereo not given), which Potency is on record?
Its Potency is active: 23.1 µM.

For `CCN(CC)c1nc(C)nc2c1cnn2CCc1ccccc1`, which Potency is on record?
The Potency was active: 11.6 µM.

For `Cc1nn(Cc2ccccc2)c(Cl)c1C(=O)NCCc1ccccc1`, which Potency is on record?
The Potency was inconclusive: 5.17 µM [activator, full curve, poor fit].

With `Cc1cccc(CSc2cn(CC(=O)N3CCOCC3)c3ccccc23)c1` as the compound, how does the Potency read?
Its Potency is inconclusive: 8.2 µM [activator, partial curve, poor fit].

Which “activity change, positive = activation” value does the source give for `CCC(C)[C@H](NC(=O)NCCC1=CCCCC1)C(=O)O` (stereo not given in full) here?
Its value is inactive: -0.909%.

With `c1ccc2[nH]c(-c3nc4ccccc4[nH]3)nc2c1` as the compound, how does the Potency read?
The Potency was active: 1.03 µM.

For `Nc1nc(-c2ccc3ccccc3c2)cs1`, which Potency is on record?
Its Potency is active: 4.61 µM.

Which Potency does the source give for `CC(C)Cc1ccc(/C=C/C(=O)N2CCOCC2)cc1` here?
The Potency was inconclusive: 16.4 µM [activator, partial curve].

For `Cc1cccc(NC(=O)CSc2nc(C3CC3)nc3ccccc23)c1`, which “activity change, positive = activation” value is on record?
Its value is inactive: -25.5%.

Which Potency does the source give for `c1ccc(-c2cn3nc(-c4ccccc4)cnc3n2)cc1` here?
Its Potency is inconclusive: 1.03 µM [activator, full curve].

For `O=C(Nc1ccccc1O)c1ccc(NS(=O)(=O)c2cccc3cccnc23)cc1`, which Potency is on record?
The Potency was active: 16.4 µM.

Which “activity change, positive = activation” value does the source give for `CN(C)S(=O)(=O)c1ccc(C(=O)Nc2cccc(S(=O)(=O)NC3=NCCC3)c2)cc1` here?
Its value is inactive: -0.148%.

Which “activity change, positive = activation” value does the source give for `CC(C)CN(C(=O)c1ccc(C(F)(F)F)cc1)c1c(N)n(CC(C)C)c(=O)[nH]c1=O` here?
Its value is inactive: 1.17%.

For `CC(C)C/C=C1\CCc2c([nH]c3ccccc23)C1=O`, which Potency is on record?
The Potency was inconclusive: 20.6 µM [activator, partial curve, poor fit].

With `O=C(c1cc(-c2ccc(Cl)c(Cl)c2)on1)N1CCCC1` as the compound, how does the Potency read?
The Potency was inconclusive: 6.51 µM [activator, single point].

With `CN(CC(=O)Nc1ccc(Cl)c(C(F)(F)F)c1)C(=O)CCNC(=O)c1ccco1` as the compound, how does the “activity change, positive = activation” value read?
Its value is inactive: -1.6%.

With `Cc1ccc(-n2nnc3c(SCC(=O)NCC4CCCO4)ncnc32)cc1` (stereo not given) as the compound, how does the “activity change, positive = activation” value read?
The value was inactive: 13.3%.

For `CCOC(=O)c1cccc(S(=O)(=O)N(CCO)Cc2cc3cc(OC)ccc3[nH]c2=O)c1`, which “activity change, positive = activation” value is on record?
Its value is inactive: -3.9%.

With `CCn1c2ccccc2c2cc(NC(=O)COC(=O)c3ccccc3F)ccc21` as the compound, how does the Potency read?
The Potency was inconclusive: 14.6 µM [activator, partial curve, poor fit].

For `CCOC(=O)CC[C@H](NC(=O)Cn1cnc2c(SC)nc(N)nc21)C(=O)OCC`, which “activity change, positive = activation” value is on record?
The value was inactive: 5.43%.

For `CNC(=O)c1ccc(-c2sc3nc(N4CCOCC4)c4c(c3c2N)CCCC4)o1`, which “activity change, positive = activation” value is on record?
The value was inactive: 4.23%.

With `Fc1ccc(-c2noc(C3CCN(Cc4cccnc4)CC3)n2)cc1` as the compound, how does the Potency read?
Its Potency is inconclusive: 23.1 µM [activator, single point].

For `COc1ccc(-n2nc(C(=O)NCC(=O)N3CCC(C)CC3)c3ccccc3c2=O)c(OC)c1`, which Potency is on record?
Its Potency is inconclusive: 16.4 µM [activator, partial curve].

With `Cc1ccc(C(=O)/C=C/c2ccco2)c(O)c1` as the compound, how does the Potency read?
Its Potency is inconclusive: 20.6 µM [activator, partial curve, poor fit].

Which Potency does the source give for `Cc1ccc(Oc2ccccc2NC(=O)CSCC(=O)Nc2cc(C)on2)cc1` here?
Its Potency is inconclusive: 5.17 µM [activator, single point].

With `CCCCCn1c(CN2CC(C)OC(C)C2)nc2c1c(=O)n(C)c(=O)n2C` (stereo not given) as the compound, how does the “activity change, positive = activation” value read?
The value was inactive: 4.67%.

Which Potency does the source give for `Cc1ccc(/C=C/c2nc3ccccc3s2)s1` here?
The Potency was active: 0.517 µM.

Which Potency does the source give for `COc1ccccc1CC(=O)Nc1ccc(-c2noc(COc3ccc(Br)cc3)n2)cc1` here?
Its Potency is inconclusive: 23.1 µM [activator, partial curve, poor fit].

For `CC1(C)Oc2ccc(NC(=O)c3ccco3)cc2O1`, which Potency is on record?
The Potency was inconclusive: 5.17 µM [activator, full curve].

For `CCN(CC(=O)Nc1ccc(NC(C)=O)cc1)C(=O)Cc1ccc(S(=O)(=O)N2CCOCC2)s1`, which “activity change, positive = activation” value is on record?
Its value is inactive: 3.55%.

Which Potency does the source give for `CN1CCN(c2ccc(NC(=O)c3ccco3)cc2Cl)CC1` here?
Its Potency is active: 8.2 µM.

With `CC1N/C(=C\C(=O)c2ccccc2)N(O)C1(C)C` (stereo not given) as the compound, how does the Potency read?
The Potency was active: 8.2 µM.

For `CCCCCCCc1ccc(-c2ccc(O)cc2)nc1`, which Potency is on record?
The Potency was inconclusive: 23.1 µM [activator, single point].

With `CC(=O)Nc1ccc(Nc2ccc3c4c(cc(=O)n3C)-c3ccccc3C(=O)c24)cc1` as the compound, how does the Potency read?
The Potency was inconclusive: 6.51 µM [activator, partial curve].

With `Cc1cc(C(=O)NCCCN2CCOCC2)n(-c2ccccc2)n1` as the compound, how does the “activity change, positive = activation” value read?
Its value is inactive: -12.8%.

With `O=[N+]([O-])c1ccc(/C=C/c2ccncc2)cc1` as the compound, how does the Potency read?
Its Potency is inconclusive: 20.6 µM [activator, partial curve, poor fit].

With `CN1C(=C2C(=O)OC(C)(C)OC2=O)Sc2ccccc21` as the compound, how does the Potency read?
The Potency was inconclusive: 9.2 µM [activator, partial curve].

For `CCNC(=O)NC(=O)C(C)Sc1ncc(C(F)(F)F)cc1Cl` (stereo not given), which “activity change, positive = activation” value is on record?
The value was inactive: -3.42%.

For `COc1ccc(C(=O)Nc2ccc3ncccc3c2)cc1`, which Potency is on record?
The Potency was active: 0.651 µM.

With `Cc1cc(N(CCO)CCO)ccc1N=Nc1cc(F)ccc1F` as the compound, how does the Potency read?
The Potency was inconclusive: 18.3 µM [activator, partial curve].

With `Cc1ccsc1/C=N/NC(=O)c1ccccn1` as the compound, how does the Potency read?
The Potency was inconclusive: 10.3 µM [activator, partial curve].
